Reference: PMC6919601, “Identification of Plasmodium dipeptidyl aminopeptidase allosteric inhibitors by high throughput screening” (PLoS ONE, 2019)
The campaign covered roughly 110,000 compounds. About 230 (0.21%) showed an effect of 50% or more. Some of the results follow.

These molecules were tested against DPAP1 (Plasmodium falciparum, UniProt Q8IIJ9) (assay: primary screen, percent inhibition; read by cleavage of a fluorogenic dipeptide substrate; higher = more effect of the substance).
Parameters: species or system P. falciparum D10 trophozoite lysates; single well
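Further: 30 min substrate incubation versus DMSO and 10 µM JCP410 controls.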

DPAP1, sequence (Q8IIJ9 whole entry, looked up): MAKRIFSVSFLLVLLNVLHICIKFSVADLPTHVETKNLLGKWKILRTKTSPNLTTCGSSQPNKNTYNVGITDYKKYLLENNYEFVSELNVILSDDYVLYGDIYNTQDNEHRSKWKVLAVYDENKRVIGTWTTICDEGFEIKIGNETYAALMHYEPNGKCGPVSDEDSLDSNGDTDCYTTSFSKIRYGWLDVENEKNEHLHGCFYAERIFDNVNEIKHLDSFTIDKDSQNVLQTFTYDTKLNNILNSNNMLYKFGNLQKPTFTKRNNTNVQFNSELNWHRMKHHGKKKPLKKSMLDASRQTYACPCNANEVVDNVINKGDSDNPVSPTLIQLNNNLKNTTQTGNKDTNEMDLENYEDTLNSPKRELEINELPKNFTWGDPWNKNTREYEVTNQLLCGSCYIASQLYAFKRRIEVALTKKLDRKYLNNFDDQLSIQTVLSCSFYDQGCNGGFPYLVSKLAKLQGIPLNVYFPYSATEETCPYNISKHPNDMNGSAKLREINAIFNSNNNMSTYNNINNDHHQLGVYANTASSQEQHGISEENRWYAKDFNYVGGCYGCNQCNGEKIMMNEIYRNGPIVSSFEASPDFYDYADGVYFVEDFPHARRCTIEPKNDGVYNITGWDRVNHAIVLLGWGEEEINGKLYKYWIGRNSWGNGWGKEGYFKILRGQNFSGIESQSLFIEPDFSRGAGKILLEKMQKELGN

Row | Compound | % Inhibition @ 10 uM
1 | Cn1c(=O)n(Cc2ccc(Br)cc2)c2ccccc21 | 2.13%
2 | CS(=O)(=O)N1c2ccccc2C=CC1c1c[nH]c2ccccc12 (stereo not drawn) | 1.84%
3 | COc1ccc(/C=C2/C(=N)N3C(SC)=NSC3=NC2=O)cc1Br | -2.87%
4 | CCOC(=O)c1ccc(NC(=O)COc2cccc(C)c2)cc1 | -5.51%
5 | CC1CC2(CCCCCC2)NCc2ccccc21 (stereo not drawn) | -13.3%
6 | CN(C)c1ccc(C2CC(c3ccc(Cl)cc3)=NN2c2ccccc2)cc1 (stereo not drawn) | -0.267%
7 | Cc1ccc(C(=O)Nc2ccc(C(N)=O)cc2)cc1Br | 1.62%
8 | COc1ccc(N(CC(=O)N2CCCCC2)S(C)(=O)=O)c(OC)c1 | -4.88%
9 | Cc1ccc(C2=N/C(=C\c3cccs3)C(=O)O2)cc1 | -2.78%
10 | CCOc1ccc(CC(=O)Nc2ccc(Br)cc2)cc1OCC | 2.95%
11 | O=C(CCn1nc(-c2ccc(Cl)cc2)c2ccccc2c1=O)N1CCCCC1 | 2.25%
12 | COc1cc(CNC(=O)OCC(C)C)cc(OC)c1OC | 0.983%
13 | COc1cccc(N/C=C(\C#N)C(=O)NC(C)=O)c1 | -1.06%
14 | CC(C)OCCCNC(=O)C1CCN(S(C)(=O)=O)CC1 | 5.23%
15 | CC(C)(C)c1cc(/C=C2\NC(=O)NC2=O)cc(C(C)(C)C)c1O | 6.27%
16 | C#CCOc1ccc(C2C3=C(CCCC3=O)N(CCC(=O)O)C3=C2C(=O)CCC3)cc1 | -7.08%
17 | Cc1ccc(C2=CC(c3c(F)cccc3Cl)n3ncnc3N2)cc1 (stereo not drawn) | 3.32%
18 | CC1(C)Cc2c(c3ccccc3n2-c2ccccc2)C(C)(C)N1 | -5.51%
19 | Cc1ccc(-c2nc(SCCOc3ccc(Cl)cc3)n3[nH]c(=O)cc3n2)cc1 | -5.33%
20 | CCN(CC)CCN(C)C1CCN(CC)CC1 | -2.95%
21 | O=C(Nc1ccccc1C(=O)O)c1cc(S(=O)(=O)N2CCCCCC2)ccc1Cl | -8.06%
22 | CCCCc1ccc(-n2c(C)cc(/C=C3/NC(=O)NC3=O)c2C)cc1 | -1.6%
23 | Cc1ccccc1S(=O)(=O)Cc1ccc(C(=O)NC2CCN(Cc3ccccc3)CC2)o1 | -2.72%
24 | c1ccc2c(CN3CCN(Cc4ccncc4)CC3)c[nH]c2c1 | -1.55%
25 | CC(CNc1cnn(C23CC4CC(CC(CC(=O)O)(C4)C2)C3)c(=O)c1Cl)c1ccccc1 (stereo not drawn) | 7.84%
26 | COc1cc(C(=O)Nc2ccc(S(=O)(=O)Nc3ccc(C)cc3C)cc2)cc(OC)c1OC | 0.795%
27 | Nc1nc(-c2sc3nc4c(cc3c2N)CCCCC4)nc(N2CCOCC2)n1 | -0.173%
